Values of other authors in patent EP4046639A1, “PREVENTION OF PULMONARY VASCULAR LEAK IN COVID-19” (priority 2021, dated 2022).

Test system: SARS-CoV-2

Structure (SMILES)	SARS-CoV-2 infection and replication
Cc1ccc(NC(=O)c2ccc(CN3CCN(C)CC3)cc2)cc1Nc1nccc(-c2cccnc2)n1 [Imatinib, 4-[(4-methylpiperazin-1-yl)methyl]-N-[4-methyl-3-[(4-pyridin-3-ylpyrimidin-2-yl)amino]phenyl]benzamide]	no effect
O=C(Nc1ccc(OC(F)(F)Cl)cc1)c1cnc(N2CC[C@@H](O)C2)c(-c2ccn[nH]2)c1 [asciminib, N-[4-[chloro(difluoro)methoxy]phenyl] -6-[(3R)-3-hydroxypyrrolidin-1-yl]-5-(1H-pyrazol-5-yl)pyridine-3-carboxamide]	no effect
